Experimental data from the supplement of paper PMC3334620.
Whole data set: some 33,000 sequences, median “E-score (-0.5 to 0.5)” near -0.056, cut for the highest 2% near 0.38. Some of the results follow.

The sequences below were run against Stb4 (UniProt P50104) (assay: PBM E-score (8-mer binding enrichment) (E-score (-0.5 to 0.5)); higher = stronger / more preferred TF binding; most listed sequences are background and not binding sites). Details: protein concentration: 200 nM; construct: GST-DNA-binding domain.
Method in brief: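 Using PURExpress in vitro transcription/translation, GST-tagged yeast transcription factors were made in full-length or DNA-binding-domain form. These were applied at about 100-200 nM to double-stranded universal all-10-mer Agilent arrays, and bound protein was detected with fluorescent anti-GST. Scans were normalised with masliner before the Universal PBM Analysis Suite assigned E-scores to ungapped eight-base words pooled with their reverse complements.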

In order of falling “PBM E-score” value:
1. AGCCGAGG  0.437
2. CCGACGGA  0.404
3. TACCGGAA  0.394
4. ATCCGGCC  0.394
5. CTCGGTAC  0.383
6. TCGGACAA  0.352
7. CGGAATCC  0.324
8. CGGTTTCC  0.309
9. AGTCCCGG  0.304
10. CCCGACAA  0.3
11. AGCCGCCG  0.287
12. CCGATAAG  0.269
13. CGAACATC  0.247
14. GGAACAAA  0.234
15. AGTATAAA  0.216
16. ACGGCAAT  0.203
17. CGGGGAAG  0.201
18. CCCCATCC  0.195
19. AGAACATA  0.155
20. CCCGCGTA  0.15
21. CCCGTGCA  0.148
22. GACATCGC  0.136
23. AAAAATCC  0.123
24. CCACGTCG  0.0984
25. AGCTGCGG  0.0958
26. ACAAGAAA  0.0949
27. CTAGTATC  0.0932
28. AATTTGAA  0.09
29. TACGCGCA  0.0889
30. ACAACGGG  0.0871
31. CAGGCTCG  0.08
32. ATCCACCC  0.0797
33. GGCCTAAC  0.0628
34. GTAGGACA  0.0584
35. GAAACCCA  0.0558
36. AAAGAAAC  0.0504
37. CGACGCTA  0.0503
38. AGACAATC  0.0448
39. AATACTCA  0.0395
40. CATACTGG  0.0369
41. GAGCGGGC  0.0332
42. GAAGCATC  0.0283
43. GACACAAA  0.0254
44. AGAATCAC  0.0235
45. CAACTGCC  0.0201
46. AGATATAA  0.018
47. GCTTATAA  0.0123
48. ACATTATG  0.0108
49. GAAAATTA  0.0036
50. CTAACTAC  0.00324
51. CGTAGGAC  0.00157
52. ATGGTCCA  -0.00392
53. ATGTCCGC  -0.00468
54. AAGGAACG  -0.00649
55. GAGTTAAC  -0.0115
56. GATCCAGC  -0.0148
57. CGCGATAC  -0.0174
58. ACAATGGG  -0.0175
59. CCTACATC  -0.0198
60. CGTCTGTA  -0.0202
61. GCCATCCC  -0.0258
62. CGTGATTA  -0.0286
63. CCAATGGA  -0.0293
64. TCACGTGA  -0.0301
65. CAGCGAGA  -0.0318
66. CGACTAGA  -0.0326
67. AACACCTG  -0.0332
68. GAATTATC  -0.0405
69. CTGGAACC  -0.0418
70. ACTCACCG  -0.0421
71. CCCAAAAG  -0.0453
72. GCCCTATA  -0.0473
73. ACCAGGAC  -0.0487
74. GAACATCA  -0.0493
75. ATAGGGGG  -0.0513
76. CTCGTGCA  -0.0534
77. ATTCTGGC  -0.0557
78. CGTGCTTA  -0.0565
79. CGTGCATA  -0.0567
80. ACCGCAGA  -0.0578
81. ACGTGCGC  -0.0595
82. TAAAAAGA  -0.0631
83. AGGTGTGC  -0.0649
84. CCAAGACC  -0.0661
85. ATAAGGTG  -0.0667
86. ACAGATCG  -0.0736
87. CTTAACAA  -0.0743
88. AGGATGAA  -0.0759
89. ACTATTCT  -0.076
90. ATGGGCAC  -0.0765
91. GCTCATCA  -0.0769
92. CAGCTGGC  -0.077
93. CTATATGC  -0.0778
94. CAACAGTC  -0.0801
95. TCAGTGAA  -0.0806
96. ACTTCAGG  -0.0807
97. CCATGATC  -0.0827
98. CACAAAAC  -0.0837
99. AATCACGA  -0.084
100. CAGTGCGC  -0.0842
101. ATGAGCAC  -0.0845
102. AATCCATA  -0.085
103. GATTGAAA  -0.0919
104. GTTCTGTA  -0.0957
105. GCGCTATA  -0.0959
106. TAACACCA  -0.097
107. ACATGTTA  -0.0974
108. ATGTGTAA  -0.0992
109. AGTGGAGA  -0.11
110. AAGCCTAG  -0.115
111. CTGTCTGA  -0.117
112. ATACTGAA  -0.119
113. ATCGTTCA  -0.122
114. TTAGATAA  -0.126
115. ATCATACG  -0.126
116. ACCTGGCG  -0.128
117. CCCTAGGA  -0.129
118. CCTCAGAG  -0.129
119. ACGACGAC  -0.129
120. CTAGGACC  -0.13
121. AACATACT  -0.131
122. GATCTAGC  -0.134
123. TCTGTCAA  -0.139
124. CCTTTCTA  -0.14
125. CTTAACGC  -0.14
126. ATACGAGC  -0.141
127. CTTGACAC  -0.146
128. CTTTTTCA  -0.146
129. TCTCGAGA  -0.147
130. GCTTACTA  -0.15
131. GTCCCAGA  -0.15
132. CATGCTGA  -0.159
133. GCTAGGGA  -0.164
134. GCGACTCA  -0.166
135. GCTCGTCC  -0.166
136. ACGTGAAG  -0.167
137. AGATCAAT  -0.168
138. AGTAGAGA  -0.173
139. CAACGCCA  -0.175
140. AGCTATAA  -0.175
141. CCCTAAGA  -0.177
142. AGCCTTAG  -0.182
143. CTCGTATC  -0.184
144. AGGTACAT  -0.185
145. CATTTGAC  -0.192
146. CACGTTAA  -0.193
147. CGTTGACC  -0.197
148. AAAGCTCA  -0.202
149. GTCCCAAA  -0.205
150. CATAAGCA  -0.211
151. AGTCTGGC  -0.212
152. AGGCTATG  -0.214
153. CCAGGCGC  -0.216
154. CCACGTAC  -0.216
155. AGGTCTAT  -0.22
156. CTGCACGC  -0.224
157. TTCCCAAA  -0.234
158. AGTCAGAT  -0.234
159. GCGCTCAC  -0.243
160. ATAGTGGC  -0.247
161. AGAATGAG  -0.25
162. AGGCGAGA  -0.25
163. CTAAAGAC  -0.251
164. ACGACAGT  -0.256
165. ACCCCAGG  -0.259
166. ATCTGTTG  -0.261
167. TGAGACCA  -0.274
168. AACCAGCT  -0.28
169. CCAGGCTA  -0.289
170. CTCACGAC  -0.305
171. CTTGAGCA  -0.336
172. AAGGCTGG  -0.342
